These results are taken from patent EP2151441A1, “Beta-carbolin-derivates as substrates for an enzyme” (Julius-Maximilians-Universität Würzburg, priority 2008, dated 2010).

Substrate in this data set: Cc1c2[nH]c3cc(OCc4ccccc4)ccc3c2cc[n+]1Cc1ccccc1
Description: Determination of Km and Vmax of the CYP3A4-catalyzed O-dealkylation reaction (LC-MS quantification of reaction product 1b). It counts as biochemical, human. To be noted: other: substrate of O-dealkylation to 1b, 5 pmol/ml CYP3A4, 2 mM NADPH, pH 7.4, 20 minutes at 37°C. The protocol:
The Michaelis-Menten constant (Km) and the maximal reaction velocity (Vmax) are important parameters for inhibition assays. To determine the inhibitory activity of test compounds the substrate concentration in the assay should be about the Km value. […] After incubation for 20 minutes at 37°C the reaction product 1b was quantified using mass spectrometry after liquid chromatography. […] For the calculation of Km and Vmax the Sigma Plot 10.0 software with enzyme kinetic module (SPSS, Inc., Chicago, IL, USA) was used.

B1: recombinant human CYP3A4 (Homo sapiens) (protein)
chain: MALIPDLAMETWLLLAVSLVLLYLYGTHSHGLFKKLGIPGPTPLPFLGNILSYHKGFCMFDMECHKKYGKVWGFYDGQQPVLAITDPDMIKTVLVKECYSVFTNRRPFGPVGFMKSAISIAEDEEWKRLRSLLSPTFTSGKLKEMVPIIAQYGDVLVRNLRREAETGKPVTLKDVFGAYSMDVITSTSFGVNIDSLNNPQDPFVENTKKLLRFDFLDPFFLSITVFPFLIPILEVLNICVFPREVTNFLRKSVKRMKESRLEDTQKHRVDFLQLMIDSQNSKETESHKALSDLELVAQSIIFIFAGYETTSSVLSFIMYELATHPDVQQKLQEEIDAVLPNKAPPTYDTVLQMEYLDMVVNETLRLFPIAMRLERVCKKDVEINGMFIPKGVVVMIPSYALHRDPKYWTEPEKFLPERFSKKNKDNIDPYIYTPFGSGPRNCIGMRFALMNMKLALIRVLQNFSFKPCKETQIPLKLSLGGLLQPEKPVVLKVESRDGTVSGA
notes: purchased BD Biosciences (Supersomes)
For B1, the Km is reported as 1.6 µM and the kcat is reported as 7.7 pmol/min/pmol CYP3A4.

A word on the Km: it is the concentration of substrate that gives half-maximal velocity.
